According to PubChem BioAssay AID493131 (Broad Institute, 2011):
In all, about 340,000 compounds went through this assay and about 3,300 (0.97%) were called active. Inconclusive results, whose numbers are uncertain, are shown with a selection of clear calls.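 How the source made its calls: active means mean activation above about 17%, with every replicate also reaching it (limit read from the data, passing the limit was not always enough); inconclusive means only one of the two conditions met; inactive means the rest.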

Target: Protein FosB (Mus musculus) (UniProt P13346)
UniProt P13346, sequence (P13346 whole entry, looked up): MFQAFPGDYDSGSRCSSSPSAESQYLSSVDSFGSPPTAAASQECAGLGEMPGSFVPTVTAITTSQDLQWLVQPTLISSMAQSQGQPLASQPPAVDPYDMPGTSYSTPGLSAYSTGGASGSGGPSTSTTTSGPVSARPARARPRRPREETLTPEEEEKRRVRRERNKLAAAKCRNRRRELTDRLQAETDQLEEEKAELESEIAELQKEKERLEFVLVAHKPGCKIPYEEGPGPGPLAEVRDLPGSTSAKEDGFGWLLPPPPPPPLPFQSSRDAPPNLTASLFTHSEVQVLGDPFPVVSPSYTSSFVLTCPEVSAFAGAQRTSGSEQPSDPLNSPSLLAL
Assay: enhancers of mouse delta FosB DNA binding – biochemical, fluorescence polarization, TAMRA-CDK5 oligo, single point, primary screen (AID 493131);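 further: fluorescence polarization rise as delta FosB binds a TAMRA Cdk5 AP-1 oligo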
Conditions: purified delta FosB, at 25 µM, stronger effect = higher value, percent of positive-control signal above neutral wells

| SMILES | activation |
| --- | --- |
| O=C(Cc1coc2ccc3ccccc3c12)NC1CCCc2ccccc21 (centres undefined) | inconclusive: 18.5% |
| Cc1cc(-c2ccccc2)[nH]c(=O)c1S(=O)(=O)c1ccc(Cl)cc1 | inconclusive: 17.7% |
| COc1ccc(CCC(C)NC(=O)CCc2ccccc2)c(OC)c1 (centres undefined) | inactive: 2.43% |
| CCCCn1c(N)c(N(CC(C)C)C(=O)C2CCN(S(=O)(=O)c3ccc(C)cc3)CC2)c(=O)[nH]c1=O | active: 56% |
| Cc1ccc(S(=O)(=O)c2nc(-c3ccc(F)cc3)oc2SCC(N)=O)cc1 | inconclusive: 18.7% |
| COc1ccc(-c2cc(C(=O)Nc3c(C)n(C)n(-c4ccccc4)c3=O)no2)cc1 | inactive: -8.07% |
| COc1cc2c3nnc(-c4ccccc4)c-3cn(Cc3ccc(F)cc3)c2cc1OC | active: 21.8% |
| CC(C)Nc1nc(-c2ccncc2)nc(-c2ccc(Cl)cc2)c1C#N | inactive: -5.19% |
| COc1cc2c3nnc(-c4ccc(F)cc4)c-3cn(Cc3cccc(C)c3)c2cc1OC | active: 40.9% |
| C/C(=N/NC(=O)c1nnn(-c2nonc2N)c1-c1ccccc1)c1ccc2c(c1)OCO2 | inconclusive: 16.3% |
| C=CCN1CCc2c(cc(O)c(O)c2Br)[C@@H](c2ccccc2)C1 | inactive: -3.13% |
| C=CC(=O)Nc1ccc(Nc2nc(NC3CCC(N(C)C)CC3)nc3c2ncn3C(C)C)cc1 (centres undefined) | inconclusive: 16.9% |
| Cc1cc(-c2csc(N)n2)c(C)n1CCc1ccccc1 | inconclusive: 28.8% |
| CCOC(=O)c1ccc(NC(=O)CN2C(=O)NC3(CCC(C)CC3)C2=O)cc1 (centres undefined) | inconclusive: 17.1% |
| CC(=O)Nc1ccc(NC(=O)C(=O)NCC(c2ccco2)N2CCc3ccccc3C2)cc1 (centres undefined) | active: 22.3% |
| CCN1/C(=C/C=C/c2sc3ccccc3[n+]2CC)Sc2ccccc21 | inconclusive: 23.5% |
| CCc1ccc(C2c3[nH]c4ccccc4c3CCN2C(=O)CNC(N)=O)cc1 (centres undefined) | inactive: 0.032% |
| COC(=O)c1ccc(C23CC4(C2)[C@H](CN(C)[C@@H]4c2ccccc2)C3c2ccc(Cl)nc2)cc1 (some centres undefined) | inconclusive: 16% |
| Cc1ccc(CC(=O)NCCc2ccc(S(N)(=O)=O)cc2)cc1 | inactive: 2.93% |
| COc1cc(Cl)cc2c1Sc1ccccc1/C2=C/CCN(C)C | inconclusive: 16.1% |
| COc1cccc2cc(C(=O)NNC(=O)c3ccc(Br)cc3)c(=O)oc12 | inconclusive: 18.3% |
| Cc1cc(C)cc(NC(=O)C2CCN(S(=O)(=O)c3ccc4[nH]c(=O)ccc4c3)CC2)c1 | active: 46.3% |
| COC(=O)COc1ccc(/C=N/NC(=O)c2ccc(N(Cc3ccccc3)S(C)(=O)=O)cc2)cc1 | inconclusive: 16.3% |
| COc1ccc(C2=C(CN(C)C)C(c3ccccc3)c3ccccc3O2)cc1 (centres undefined) | inconclusive: 18.7% |
| O=C(O)C(=Cc1ccccc1)Cc1ccccc1 | inactive: 5.46% |
| CC(=O)Nc1sc2c(c1-c1nc3ccccc3s1)CN(C(C)C)CC2 | inconclusive: 16.6% |
| COc1ccc(Oc2nc(Oc3ccc(OC)cc3)nc(Oc3ccc(OC)cc3)n2)cc1 | inconclusive: 19.4% |

| SMILES | activation |
| --- | --- |
| O=C(NNC(=O)c1csc(-c2cccnc2)n1)Nc1ccc(Cl)cc1 | inconclusive: 17.1% |
| CCOc1ccc(-c2nc(CSCC(=O)NCc3ccco3)c(C)o2)cc1 | inactive: -6.32% |
| COc1ccc(/C=N/NC(=O)c2ccccc2NC(=O)c2ccco2)c(OC)c1 | active: 83.8% |
| COc1cc(C(C(=O)NC2CCCCC2)N(C(=O)c2snc(C(N)=O)c2N)c2ccc(C)cc2)ccc1O (centres undefined) | inconclusive: 19.6% |
| COc1cccc(-c2nc(CS(=O)(=O)CC(=O)Nc3cccc(C)c3C)c(C)o2)c1 | inconclusive: 23.7% |
| Cc1ccc2nc(NCc3ccc(F)cc3)c3nncn3c2c1 | inconclusive: 18% |
| O=C(NCC(F)(F)F)c1ccc(S(=O)(=O)Nc2ccccc2N2CCCC2)cc1 | active: 53.1% |
| N#Cc1ccc(-c2csc(NC(=O)/C=C/c3cccs3)n2)cc1 | inconclusive: 22.9% |
| O=C(CSc1nc2[nH]ncc2c(=O)[nH]1)Nc1ccc(OC(F)(F)F)cc1 | active: 19.1% |
| COc1ccc(-n2nc(C(=O)NCC3CCCO3)c3ccccc3c2=O)cc1 (centres undefined) | inactive: -7.5% |
| COc1ccc(-c2csc(NC(=O)C3CSC4(C)CCC(=O)N34)n2)cc1OC (centres undefined) | inactive: -1.02% |
| O=C(Nc1cccc(-c2nc3cccnc3s2)c1)c1ccc(Cl)nc1 | active: 26.6% |
| O=C(Nc1ccc2ccccc2c1)Nc1ccc2snnc2c1 | inconclusive: 18.2% |
| COC1CCN(C(=O)C2CCC(=O)N(C3CCCCCC3)C2)CC1 (centres undefined) | inactive: 8.23% |
| Cc1cccc2cc3ccccc3nc12 | inactive: -3.8% |
| Cc1ccc(NC(=O)CC2C(=O)N(Cc3ccccc3)C(=S)N2NC(=O)c2cccc(F)c2)c(C)c1 (centres undefined) | inconclusive: 33.3% |
| O=C(/C=C\c1ccco1)Nc1nc(-c2ccccc2)cs1 | inactive: 5.25% |
| O=C(NC1=NCCS1)c1cc(-c2ccc(-c3ccccc3)cc2)nc2ccccc12 | inconclusive: 19.3% |
| Cc1ccccc1C(=O)Nc1ccc(N(C)C)c2ccccc12 | inactive: 11% |
| O=C(C[C@H]1C/C=C\C[C@H](NC(=O)OCC2c3ccccc3-c3ccccc32)C(=O)O[C@@H](c2ccccc2)CNC1=O)NCCO | inconclusive: 18.5% |
| CCOc1ccc(NC(=O)C(Cc2ccccc2)N2C(=O)c3cccc4cccc(c34)C2=O)cc1 (centres undefined) | inconclusive: 21.8% |
| COc1ccc(/C=C(\C#N)C(=O)Nc2cc(C)c(Cl)cc2OC)cc1O | inconclusive: 17.7% |
| CCOc1ccc(S(=O)(=O)N2CCNC(=O)C2)cc1 | inactive: -9.65% |
| CCN(CC)c1ccc(N=Cc2c(C)[nH]c3ccccc23)cc1 | inactive: 3.05% |
| CCN(CC)c1ccc(/C=N/N2C(=O)c3ccccc3C2=O)c(O)c1 | inactive: -5.3% |
| COc1ccc(NC(=O)Nc2cccc3c2O[C@H](CN(C)C(=O)Nc2c(C)noc2C)[C@@H](C)CN([C@H](C)CO)C3=O)cc1 | inactive: -6.85% |
| N#CC1CC(c2ccc([N+](=O)[O-])cc2)=NN1c1ccc([N+](=O)[O-])cc1 (centres undefined) | inactive: -6.46% |
